# In the supplement of paper PMC8728848:
# This is one part of the list.
# B1: CvGal2 (Crassostrea virginica) (protein)
# chain: MGSSHHHHHHSSGLVPRGSHMRIREAGKRKDTTKVYQIPDGLFPGQQVMLRGRVPWGSKSFSINFSATPRMGEGDILFHLNPRPSEGVCIRNALLNGSWGAEEKWQPYFPFDDGRSFSVKIEVTNDAFRTFVNGRPFVDFLHRTDFRAGKYLTLREGAEYYDVIFQSKPNIPLTTAIHNGMRIGKTIRIRGMCTAQDGFAINFNDNRNNIYFHFNARPAQRTVVRNSYFGSWGNEETAISKEFPFYPFLYFYASFVCMEDKFAVYVNDEHFIDFAHRGNPNNISVLQIKGSVNVLDTECLEPMGEDAMTEVDSGLENGDLFVLNGLMTERGKTFAVNFLNGFTENDDIALHFNPRKSTGEVVLNSRYGGAWQSEEKVALPGVFWSNRPLQVKVETKRNKFKIYVNGVDLAKYKIRGNVEDVHAVQVKGDVFLLETLLLKRLMKPVWERLTGGIRPGTWVTLQGTPKKNWQQFVVNFALDDTLDGDIAFHFNVRRGARQVVRNHRQSGAWGREETVTPFFAFDSEATFEIVFFVKEEKFLIYFNGKLFFEFVHRVPVERITHIYMDGDCNFYEPEVVI
# Experiments:
# Assay in all cases: glycan array binding signal (z-score within array); higher = stronger binding
# Conditions in all cases: glycan notation: IUPAC condensed, linker removed
# [1] = target: GlcNAc(b1-3)Gal(b1-4)GlcNAc(b1-3)Gal(b1-4)GlcNAc(b1-3)Gal(b1-4)GlcNAc(b1-3)Gal(b1-4)GlcNAc(b1-2)[GlcNAc(b1-3)Gal(b1-4)GlcNAc(b1-3)Gal(b1-4)GlcNAc(b1-3)Gal(b1-4)GlcNAc(b1-3)Gal(b1-4)GlcNAc(b1-6)]Man(a1-6)[GlcNAc(b1-3)Gal(b1-4)GlcNAc(b1-3)Gal(b1-4)GlcNAc(b1-3)Gal(b1-4)GlcNAc(b1-3)Gal(b1-4)GlcNAc(b1-2)Man(a1-3)]Man(b1-4)GlcNAc(b1-4)[Fuc(a1-6)]GlcNAc
# In short: (§1)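 The binding signal is a Z-score computed within each array. Data were drawn from 3228 arrays in the Consortium for Functional Glycomics database, restricted to those with a known protein sequence. Scores were averaged over arrays of the same protein sequence at different concentrations or buffers, and over linkers, and negative values can be taken as non-binding.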
# [2] = target: GlcNAc(b1-3)Gal(b1-4)GlcNAc(b1-3)Gal(b1-4)GlcNAc(b1-3)GalNAc
# In short: as §1
# [3] = target: GlcNAc(b1-3)Gal(b1-4)GlcNAc(b1-3)GalNAc
# In short: as §1
# [4] = target: GlcNAc(b1-3)Gal(b1-4)GlcNAc(b1-3)[GlcNAc(b1-3)Gal(b1-4)GlcNAc(b1-3)]GalNAc
# In short: as §1
# [5] = target: GlcNAc(b1-3)Gal(b1-4)GlcNAc(b1-6)[Gal(b1-3)]GalNAc
# In short: as §1
# [6] = target: GlcNAc(b1-3)Gal(b1-4)GlcNAc(b1-6)[GlcNAc(b1-3)Gal(b1-3)]GalNAc
# In short: as §1
# [7] = target: GlcNAc(b1-3)Gal(b1-4)GlcNAc(b1-6)[GlcNAc(b1-3)]Gal(b1-4)GlcNAc
# In short: as §1
# GlcNAc(b1-3)GalNAc = target: GlcNAc(b1-3)GalNAc
# In short: as §1
# GlcNAc(b1-3)Man = target: GlcNAc(b1-3)Man
# In short: as §1
# [8] = target: GlcNAc(b1-3)[GlcNAc(b1-4)][GlcNAc(b1-6)]GlcNAc
# In short: as §1
# [9] = target: GlcNAc(b1-3)[GlcNAc(b1-6)]Gal(b1-4)GlcNAc
# In short: as §1
# [10] = target: GlcNAc(b1-3)[GlcNAc(b1-6)]GalNAc
# In short: as §1
# [11] = target: GlcNAc(b1-4)Gal(b1-4)GlcNAc
# In short: as §1
# GlcNAc(b1-4)GlcNAc = target: GlcNAc(b1-4)GlcNAc
# In short: as §1
# [12] = target: GlcNAc(b1-4)GlcNAc(b1-4)GlcNAc
# In short: as §1
# [13] = target: GlcNAc(b1-4)GlcNAc(b1-4)GlcNAc(b1-4)GlcNAc(b1-4)GlcNAc
# In short: as §1
# [14] = target: GlcNAc(b1-4)GlcNAc(b1-4)GlcNAc(b1-4)GlcNAc(b1-4)GlcNAc(b1-4)GlcNAc
# In short: as §1
# [15] = target: GlcNAc(b1-4)[GlcNAc(b1-6)]GalNAc
# In short: as §1
# [16] = target: GlcNAc(b1-6)Gal(b1-4)GlcNAc
# In short: as §1
# GlcNAc(b1-6)GalNAc = target: GlcNAc(b1-6)GalNAc
# In short: as §1
# [17] = target: GlcNAc6S(b1-3)Gal(b1-4)GlcNAc
# In short: as §1
# Kdn(a2-3)Gal(b1-3)GalNAc = target: Kdn(a2-3)Gal(b1-3)GalNAc
# In short: as §1
# Kdn(a2-3)Gal(b1-3)GlcNAc = target: Kdn(a2-3)Gal(b1-3)GlcNAc
# In short: as §1
# Kdn(a2-3)Gal(b1-4)Glc = target: Kdn(a2-3)Gal(b1-4)Glc
# In short: as §1
# Kdn(a2-3)Gal(b1-4)GlcNAc = target: Kdn(a2-3)Gal(b1-4)GlcNAc
# In short: as §1
# [18] = target: Kdn(a2-3)Gal(b1-4)[Fuc(a1-3)]GlcNAc
# In short: as §1
# Kdn(a2-6)Gal(b1-4)GlcNAc = target: Kdn(a2-6)Gal(b1-4)GlcNAc
# In short: as §1
# [19] = target: Man(a1-2)Man(a1-2)Man(a1-3)Man
# In short: as §1
# [20] = target: Man(a1-2)Man(a1-2)Man(a1-6)[Man(a1-3)]Man
# In short: as §1
# Man(a1-2)Man(a1-3)Man = target: Man(a1-2)Man(a1-3)Man
# In short: as §1
binder,measurement,setting,value
B1,glycan array binding signal (z-score),[1],0.428
same,glycan array binding signal (z-score),[2],-0.34
same,glycan array binding signal (z-score),[3],-0.321
same,glycan array binding signal (z-score),[4],-0.338
same,glycan array binding signal (z-score),[5],-0.333
same,glycan array binding signal (z-score),[6],-0.298
same,glycan array binding signal (z-score),[7],-0.345
same,glycan array binding signal (z-score),GlcNAc(b1-3)GalNAc,-0.316
same,glycan array binding signal (z-score),GlcNAc(b1-3)Man,-0.33
same,glycan array binding signal (z-score),[8],-0.317
same,glycan array binding signal (z-score),[9],-0.33
same,glycan array binding signal (z-score),[10],-0.328
same,glycan array binding signal (z-score),[11],-0.324
same,glycan array binding signal (z-score),GlcNAc(b1-4)GlcNAc,-0.329
same,glycan array binding signal (z-score),[12],-0.342
same,glycan array binding signal (z-score),[13],-0.343
same,glycan array binding signal (z-score),[14],-0.345
same,glycan array binding signal (z-score),[15],-0.341
same,glycan array binding signal (z-score),[16],-0.339
same,glycan array binding signal (z-score),GlcNAc(b1-6)GalNAc,-0.335
same,glycan array binding signal (z-score),[17],-0.328
same,glycan array binding signal (z-score),Kdn(a2-3)Gal(b1-3)GalNAc,-0.329
same,glycan array binding signal (z-score),Kdn(a2-3)Gal(b1-3)GlcNAc,-0.33
same,glycan array binding signal (z-score),Kdn(a2-3)Gal(b1-4)Glc,-0.336
same,glycan array binding signal (z-score),Kdn(a2-3)Gal(b1-4)GlcNAc,-0.338
same,glycan array binding signal (z-score),[18],-0.339
same,glycan array binding signal (z-score),Kdn(a2-6)Gal(b1-4)GlcNAc,-0.329
same,glycan array binding signal (z-score),[19],-0.324
same,glycan array binding signal (z-score),[20],-0.338
same,glycan array binding signal (z-score),Man(a1-2)Man(a1-3)Man,-0.34
